# From the supplement of paper PMC10338343
# ± gives the standard deviation. The entries are a selection whose mix differs from that of the whole data set.
# Tested on: MIWI (PIWIL1) piRISC loaded with piRNA #1 (30 nt)
# Assay: pre-steady-state target cleavage rate (min^-1); MIWI and MILI are mouse PIWI proteins and EfPiwi is from a freshwater sponge; tags in brackets are library labels; higher = faster piRNA-guided slicing of the target
# Conditions: guide: piRNA #1 5'p-UGAGGUAGUAGGUUGUAUAGUAUCCAGAGG; auxiliary factor: 500 nM mouse GTSF1
# Procedure, shortened: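 Active affinity-purified piRISC (1 nM) loaded with one synthetic guide was mixed with a transcribed, DNA-blocked target RNA library (0.1 nM), with or without 500 nM GTSF1 partner protein, in HEPES–potassium acetate buffer at 33 °C for 0–8 or 0–960 min. Uncleaved targets were sequenced, normalised to depth and to weakly complementary targets, and pooled across three trials, with k3 capped at 0.0001 min^-1. The pre-steady-state cleavage rate was determined with a burst-and-steady-state fit.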
row,Sequence,pre-steady-state target cleavage rate
1,GCUCUGGAUACUAUACAACCUACAUGGAGA [g8:g29:cont:t1A],0.0189 ± 0.0059
2,GGAGAGGAAUCUAUACAACCUACUACCUCA,1.38 ± 0.077
3,GGAGACCUAUGUCAUACAACCUACUACCUCA,0.0206 ± 0.0051
4,GCUCUUGAUACUAUACAACCUACUACCUCA,2.03 ± 0.11
5,GGAGACCUAUGAUAUGUUGGUACUACGUGA,< 0.0001
6,GGAGACCUAUGUAUACAACCUACUACCACA,0.096 ± 0.015
7,GGUCUGGAUACUAUACAACCUAGUACCUCA,0.497 ± 0.071
8,GGAGACGAAACUAUACAACCUAGUACCUCA,0.491 ± 0.062
9,GGAGACCAUACUUUUCAACCUACUACCUCA,0.327 ± 0.044
10,GGAGACGAUACUAUACAACCUUCUACCACA,0.431 ± 0.025
11,GGAGACCUAACUAUAGUACCUACUACCUCA,0.0662 ± 0.024
12,GGUCUGGAUACUAUACUUGGAUGAUGGAGA [g15:g28:cont:t1A],< 0.0001
13,GGAGACCUUACUAUAAAACCUACUACCUCA,1.16 ± 0.1
14,GGAGACGAUACUAUAAAACCUACUACCUCA,1.58 ± 0.092
15,GGUCUGGAUACUAUACAACCUACAACCUCA,0.383 ± 0.04
16,GGAGACCAUACUAUACAACCUCUACCUCA,0.00374 ± 0.0027
17,GGAGACCAUUCAAUACAACCUACUACCUCA,0.243 ± 0.048
18,GGUCUGGAUACUAUACCACCUACUACCUCA,1.38 ± 0.074
19,GGAGACCAAACUAUUCAACCUACUACCUCA,0.766 ± 0.1
20,GGAGACGAUACAAUACAACGUACUACCUCA,0.37 ± 0.029
21,GGAGACGAUACUAACAACCUACUACCUCA,1.35 ± 0.094
22,GCUCUGGAUACUAUACAACCUAUACCUCA,0.00931 ± 0.0037

row,Sequence,pre-steady-state target cleavage rate
1,GGAGACCUUACUAUACAACCUUCUACGUCA,0.274 ± 0.034
2,CCUCUGGAUACUAUACAAGCUACUACCACA,1.58 ± 0.1
3,GGAGUGGAUAGUUUACAACCUACUACCUCA,0.663 ± 0.04
4,GGAGACCAUACUAUACAACCAUCUACCUCA,0.0225 ± 0.0065
5,GCUCUGGAUACAAUACAACCUACUAGCUCA,0.985 ± 0.087
6,CCUCUGGAUACUAUACAACCUACUACCUUA,1.81 ± 0.11
7,GGAGUGGAUACUAAACAACGUACUACCUCA,0.553 ± 0.038
8,GGACUGGAUACUAUACGACCUACUACCUCA,1.55 ± 0.11
9,GGAGACCUAUCUAUACAACCUAGAUCCUCA,0.00558 ± 0.002
10,GCACUGGAUACUAUACAACCUACUACGUCA,0.786 ± 0.057
11,GGAGACCUUUCAAUACAACCUACUACCUCA,0.086 ± 0.025
12,GGAGACGAUACCAUACAACCUACUACCUCA,1.53 ± 0.084
13,CCUCUGGUAUACUAUACAACCUACUACCUCA,0.693 ± 0.029
14,GGAGACCAUAGAAUACAACCUACUACCUCA,0.013 ± 0.004
15,GGACUGGAUACUAUUCAACCAACUACCUCA,0.0795 ± 0.0087
16,GGUCUGGAUACUAAACAACCUACUACGUCA,0.75 ± 0.067
17,GGAGACCUUACUUUACAACCUACUACGUCA,0.42 ± 0.043
18,CCUGUGGAUACAAUACAACCUACUACCUCA,1.9 ± 0.13
19,GGAGACCAUACUAUACAACCGACUACCUCA,0.0109 ± 0.0016
20,GCUCUGGAUACUAAACAUCCUACUACCUCA,1.25 ± 0.081
21,GGAGUGGAUACUAUACAACCUAGAUCCUCA,0.00605 ± 0.0017
22,GGAGACCAUACUUUACAACCUACUACCACA,0.892 ± 0.1

row,Sequence,pre-steady-state target cleavage rate
1,GGAGACCUAUGAUAUGUACCUCUACCUCA,< 0.0001
2,CCUCAGGAUACUAUAGAACCUACUACCUCA,0.504 ± 0.051
3,GGAGUGGAUACUAUACAACCUACUACCCUCA,0.629 ± 0.074
4,GCUCUGGAAUGUAUACAACCUACUACCUCA,0.727 ± 0.045
5,GGAGACCAUUCUAUACAACCUACUACGUCA,0.578 ± 0.041
6,GGAGAGGAAACUAUACAACCAACUACCUCA,0.103 ± 0.014
7,GCACUGGAUACUAUAGAACCUACUACCUCA,1.1 ± 0.051
8,CCUCUGGAUACUAAACAACCUACUUCCUCA,0.551 ± 0.046
9,GGAGACCUAUCUAAUCAACCUACUACCUCA,0.00495 ± 0.0024
10,GGAGACCUUACUAUACAAGCUACUACCUGA,0.5 ± 0.029
11,GGAGUGGAUUCUAUAGAACCUACUACCUCA,1.28 ± 0.078
12,GGAGACCUAUGUAUACAACCUACUCCCUCA,0.0312 ± 0.0043
13,GGAGACCAUACUAUACUACCAACUACCUCA,0.00977 ± 0.0019
14,GGAGACCUAUGAUAUGUCCCUACUACCUCA,< 0.0001
15,GCUCUGGAAACAAUACAACCUACUACCUCA,1.3 ± 0.074
16,GGUCUGCAUACUAUACAAGCUACUACCUCA,1.1 ± 0.051
17,GGAGUGGAUACUAUACAACCUACCACCUCA,0.434 ± 0.044
18,CCUCUGCAUACUAUACAAGCUACUACCUCA,1.57 ± 0.078
19,GGAGACCAUACUAUACAACUACUACCUCA,0.162 ± 0.016
20,GGAGACGAUACUAUAGAACCUUCUACCUCA,0.156 ± 0.019
21,GGAGACCUAUCUAAACAACCUAGUACCUCA,0.00985 ± 0.0029
